# Measured values taken from publication PMC12136788.
# The other results are listed elsewhere or left out.
# T1: UNK ZnF1-6 (called full-length) (human, UniProt Q9C0B0 30-357)
# T1 sequence: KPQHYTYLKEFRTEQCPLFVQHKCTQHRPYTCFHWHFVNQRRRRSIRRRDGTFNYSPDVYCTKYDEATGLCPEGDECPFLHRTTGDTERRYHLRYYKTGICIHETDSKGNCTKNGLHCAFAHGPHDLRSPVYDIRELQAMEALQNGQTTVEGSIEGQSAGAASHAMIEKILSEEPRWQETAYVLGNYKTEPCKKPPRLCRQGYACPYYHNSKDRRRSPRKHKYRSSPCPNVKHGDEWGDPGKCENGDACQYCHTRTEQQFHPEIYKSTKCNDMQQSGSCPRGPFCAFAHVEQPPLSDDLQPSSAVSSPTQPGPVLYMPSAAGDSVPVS
# B1: chr5:72208420:72208520:+|3pUTR|ENSG00000131711|msi1_unk|total|mutant (ssRNA)
# RNA: GGGAGUUCUACAGUCCGACGAUCCUCAUGAUCAUGACCUUUUUGGCCGUAUUCUUAAACAAAAUUCUACAGAGACUAAAUGUCCGCGAUGAUCCUCCAUUUUCAAUUUUAACCAAUUCUGUCCCCUUUCUCAAAACCCUGAGCCAACAGAGGAUUGAGCAUCA
# B2: chr11:9429001:9429102:+|CDS|ENSG00000205339|msi1_unk|FALSE|overlapping (ssRNA)
# RNA: GGGAGUUCUACAGUCCGACGAUCGGUACUUCACUAUUUUUGUGAAGUGAAGUUCAAAAGUGAUCAGAACCUUCAAACAGCCUUAGAGCUAACAAGAAGAUGUCUGAUUGAUGAUAGAGAAAUGCCUGUGAAAGUGGAAGCUGCCAACAGAGGAUUGAGCAUCA
# B3: chr6:107883018:107883119:-|CDS|ENSG00000025796|unk|total|mutant (ssRNA)
# RNA: GGGAGUUCUACAGUCCGACGAUCAAGGAAGAUGAAGAAGAAGUUUCAGAUAAGGGCAGUGAUUCUGAAGAAGAAGAAACCAACCGAGAUUCCCAAAGUGAGAAAGAUGAUGGCCGUGACAGAGACUCUGACCGAGAGCAAGAUCAACAGAGGAUUGAGCAUCA
# B4: chr11:2397021:2397122:+|3pUTR|ENSG00000110651|msi1|total|mutant (ssRNA)
# RNA: GGGAGUUCUACAGUCCGACGAUCUUGGGGUUUUGUUUUUGUUCUGAACUUUCCUGUUACCUUUUCAGGGCUGACGUCACAUGCCGGUGGCGUGUAUGAGUGGAGACGGGCCUGGGUCUUGGGGACUGGAGGGCAGGGGUCCUUCAACAGAGGAUUGAGCAUCA
# B5: ENSG00000107863:be:win_5101|CDS|ENSG00000107863|bound_else_gene|NA|bound_elsewhere_windowed (ssRNA)
# RNA: GGGAGUUCUACAGUCCGACGAUCGAUACUCUUUCCAGGAAAAAAUCAGCUAGAUUCAAGUCAGAUAGUGGAAGUCUAGGAGAUGCCAAGAAUGAGAAAGAAGCACCUUCGUUAACUAAAGUGUUUGAUGUUAUGAAAAAAGGACAACAGAGGAUUGAGCAUCA
# B6: chr12:68839811:68839877:+|CDS_3pUTR|ENSG00000135679|msi1_unk|total|mutant (ssRNA)
# RNA: GGGAGUUCUACAGUCCGACGAUCAUAAGCCCUGCCCAGUAUGCCGACAACCAAUUCAAAUGAUUGUGCUAACUUAUUUCCCCCCGUUGACCUGUCUAUAAGAGAAUUAUAUAUUUCUAACUAUAUAACCCCCGGAAUUCCGACCAACAGAGGAUUGAGCAUCA
# Molecular target: T1, UNK ZnF1-6 (called full-length)
# Experiment: nsRBNS (natural sequence RNA bind-n-seq); RBNS binding buffer (assumed for nsRBNS): 25 mM Tris pH 7.5, 150 mM KCl, 3 mM MgCl2, 0.01% Triton X-100, 500 ug/ml BSA, 20 U/ml SUPERase-In, 4 C; UNK is unkempt and MSI1 is Musashi-1; names of the RNAs are library labels; protein concentration not given here; high values mean tight binding
row,Binder,binding signal [enrichment R]
1,B1,1
2,B2,0.336
3,B3,0.797
4,B4,1.67
5,B5,0.416
6,B6,0.616
